“And” between values parts separate entries of the source, which are not always exact repeats. Equal entries are not always repeated. The campaign covered roughly 110,000 compounds. About 230 (0.21%) showed an effect of 50% or more. The list shows a part of the results.
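Also: 30 min substrate incubation versus DMSO and 10 µM JCP410 controls.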

For this assay, the target named is DPAP1 (Plasmodium falciparum, UniProt Q8IIJ9). In words: primary screen, percent inhibition; read by cleavage of a fluorogenic dipeptide substrate; higher = more effect of the substance. Set-up: species or system P. falciparum D10 trophozoite lysates; single well.
Chain of DPAP1 (Q8IIJ9 whole entry, looked up): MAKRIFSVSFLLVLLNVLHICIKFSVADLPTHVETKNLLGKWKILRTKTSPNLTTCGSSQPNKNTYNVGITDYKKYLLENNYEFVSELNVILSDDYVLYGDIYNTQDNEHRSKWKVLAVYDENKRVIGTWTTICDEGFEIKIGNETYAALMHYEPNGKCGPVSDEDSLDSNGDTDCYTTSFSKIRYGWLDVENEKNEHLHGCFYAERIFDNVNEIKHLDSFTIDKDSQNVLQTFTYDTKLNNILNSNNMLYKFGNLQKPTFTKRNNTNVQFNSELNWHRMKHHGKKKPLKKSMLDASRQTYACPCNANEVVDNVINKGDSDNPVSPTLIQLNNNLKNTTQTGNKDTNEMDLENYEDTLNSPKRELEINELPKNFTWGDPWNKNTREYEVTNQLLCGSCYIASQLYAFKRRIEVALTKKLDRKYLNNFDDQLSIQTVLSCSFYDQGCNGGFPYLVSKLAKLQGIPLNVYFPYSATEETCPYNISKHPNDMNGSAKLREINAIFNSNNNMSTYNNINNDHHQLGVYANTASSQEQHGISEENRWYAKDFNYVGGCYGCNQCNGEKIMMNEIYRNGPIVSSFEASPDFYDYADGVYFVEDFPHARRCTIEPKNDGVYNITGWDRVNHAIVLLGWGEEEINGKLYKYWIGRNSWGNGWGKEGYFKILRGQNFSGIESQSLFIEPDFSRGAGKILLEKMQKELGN
On to `COc1ccc(C2CC(C(F)(F)F)n3ncc(C(=O)NC(C)(C)C)c3N2)cc1` (stereo not drawn), for which the “% Inhibition @ 10 uM” value turned out to be 4.33%.

As to `CCOc1cc2c(cc1OCC)C(c1ccc(OC)c(OC)c1Cl)NCC2` (stereo not drawn), the “% Inhibition @ 10 uM” value was 3.57%.

As for `O=C(CCN1C(=O)c2cccc3cccc(c23)C1=O)Nc1cccc(Br)c1`, the “% Inhibition @ 10 uM” value amounted to 1.85%.

On to `CCCN1C(=O)C(O)(CC(=O)c2ccc(Br)cc2)c2ccccc21` (stereo not drawn), for which the “% Inhibition @ 10 uM” value was -4.5%.

Consider `CCOc1cc(C)c(S(=O)(=O)NC2CC(C)(C)NC(C)(C)C2)cc1C`, for which the “% Inhibition @ 10 uM” value stood at 1.49%.

For the compound `COc1ccccc1/C=C/C=C1N=C(/C=C/c2ccc(Cl)cc2)OC/1=O`, the “% Inhibition @ 10 uM” value is -1.12%.

Take `Cc1ccc(-n2nc3c(=O)n(CCCC(=O)NCc4ccccn4)nc(C)c3c2C)cc1`: the “% Inhibition @ 10 uM” value is listed as -4.38%.

In the case of `Fc1ccc2c(c1)c1nnc(S)nc1n2CCc1ccccc1`, the “% Inhibition @ 10 uM” value was determined as 10.9%.

`CCN(CC)c1ncnc2sc(C(=O)NCc3ccccc3OC)c(C)c12`: the “% Inhibition @ 10 uM” value was -2.17%.

On to `COCCN(CCOC)S(=O)(=O)c1ccc(/C(O)=C(\C#N)c2nc3ccccc3[nH]2)cc1`, for which the “% Inhibition @ 10 uM” value is 2.7%.

In the case of `CNC(=O)c1cc2c(C)nn(-c3ccccc3)c2s1`, the “% Inhibition @ 10 uM” value amounted to 4.15%.

With `N#CCNC(=O)[C@H](CC1CCCCC1)NC(=O)Nc1ccccc1`, the “% Inhibition @ 10 uM” value is listed as -0.214%.

For the compound `Fc1ccc(-c2nsc3c(N4CCOCC4)ncnc23)cc1`, the “% Inhibition @ 10 uM” value was found to be 0.758%.

For `Cc1cccc(C(=O)N2CCN(C(=O)c3cccc(C)c3)C(C)C2)c1` (stereo not drawn), the “% Inhibition @ 10 uM” value is -6.6%.

With `Cc1ccccc1C(=O)Nc1ccc(F)cc1`, the “% Inhibition @ 10 uM” value turned out to be 3.53%.

On to `COc1cc(CN2CCN(c3ccc(Cl)cc3)CC2)cc(OC)c1`, for which the “% Inhibition @ 10 uM” value was determined as 3%.

For the compound `CCCCNC(=O)CCc1c(C)nc2cc(-c3ccc(Cl)cc3)nn2c1C`, the “% Inhibition @ 10 uM” value is -6.03%.

As to `Cc1cc(C)c2nc(O)cc(C(=O)O)c2c1`, the “% Inhibition @ 10 uM” value was -1.33%.

As for `COc1ccccc1C(=O)N(Cc1ccccc1F)C1CCS(=O)(=O)C1` (stereo not drawn), the “% Inhibition @ 10 uM” value is -1.35%.

`COc1ccc(C(=O)Cn2c(N3CCN(C)CC3)nc3c2c(=O)n(C)c(=O)n3C)cc1`: the “% Inhibition @ 10 uM” value turned out to be 1.43%.

As for `COCCNC(=O)c1cnn(-c2ccc(C)cc2)c1C1CCN(C(=O)OC(C)(C)C)CC1`, the “% Inhibition @ 10 uM” value is -5.8%.

For `CCc1ccc(CNC(=O)CN2N=C(c3ccc(Cl)cc3)CCC2=O)cc1`, the “% Inhibition @ 10 uM” value is listed as 0.514%.

Turning to `CC(=O)C1=C(O)C(=O)N(Cc2ccccc2)C1c1ccc(Br)cc1` (stereo not drawn), the “% Inhibition @ 10 uM” value is -2.67%.

`CC1=C(C(N)=O)C(c2ccccc2)NC(S)=N1` (stereo not drawn): the “% Inhibition @ 10 uM” value is listed as -0.339%.

Regarding `COc1ccccc1/C=C1/SC(Nc2ccccc2C)=NC1=O`, the “% Inhibition @ 10 uM” value is on record as -2.34%.

On to `O=C1C(=Cc2c[nH]c3ccccc23)C(=O)c2ccccc21`, for which the “% Inhibition @ 10 uM” value is 6.33%.

Regarding `NC(=S)N/N=C/c1nc2ccccc2n1Cc1ccccc1`, the “% Inhibition @ 10 uM” value is reported as 4.1%.

Take `COc1ccc(-c2cn3c(n2)sc2cc(C(=O)N(C)Cc4ccccc4)ccc23)cc1`: the “% Inhibition @ 10 uM” value is 14.7%.

As for `CO/C(O)=C1/C(C)=Nc2nc(O)nc(O)c2C1c1ccc(Br)cc1` (stereo not drawn), the “% Inhibition @ 10 uM” value was found to be 3.47%.

On to `Cc1ccc(S(=O)(=O)N2CCN(CCCOc3ccccc3Cl)CC2)cc1`, for which the “% Inhibition @ 10 uM” value is on record as -2.28%.

On to `COc1ccccc1C(=O)Nc1ccc2c(c1)OCO2`, for which the “% Inhibition @ 10 uM” value was 1.89%.

`O=C(Nc1ccc(Cl)cc1)N(Cc1ccccc1)Cc1ccccc1`: the “% Inhibition @ 10 uM” value worked out at 2.47%.

`CC(=O)c1c(C(F)(F)F)nn(C(=O)c2ccccc2)c1C`: the “% Inhibition @ 10 uM” value was -0.703%.

Turning to `CC1CCCN(S(=O)(=O)c2ccc3nc(O)cc(C(=O)NCCCN4CCCCC4C)c3c2)C1` (stereo not drawn), the “% Inhibition @ 10 uM” value is reported as 3.66%.

`O=C(NCc1ccccn1)C1CCCN(c2nn3cc(-c4ccc(F)cc4)nc3s2)C1` (stereo not drawn): the “% Inhibition @ 10 uM” value was 7.01%.

Regarding `Cc1ccc(-c2noc(CCC(=O)N3CCCC(C)C3)n2)cc1` (stereo not drawn), the “% Inhibition @ 10 uM” value is recorded as -6.58%.

As to `Cc1nn2c(-c3ccncc3)nnc2c2ccccc12`, the “% Inhibition @ 10 uM” value turned out to be 0.366%.

Take `CC1CCN(c2c(NCC3CCC(C(=O)NCCCc4ccccc4)CC3)c(=O)c2=O)CC1` (stereo not drawn): the “% Inhibition @ 10 uM” value is given as -6.04%.

Take `CC(C)(C)c1ccc(OCCCCN2CCCCC2)cc1`: the “% Inhibition @ 10 uM” value is on record as 0.135%.

Take `CC(C)C[C@H](NC(=O)c1ccc(OC(F)(F)F)cc1)C(=O)NCC#N`: the “% Inhibition @ 10 uM” value is 0.174%.

`CC(=O)c1sc(N)c(C(=O)Nc2cccc(C)c2)c1C`: the “% Inhibition @ 10 uM” value is on record as 4.56%.

Take `CCN1C(=O)c2cccc3c(S(=O)(=O)NC(CCSC)C(=O)O)ccc1c23` (stereo not drawn): the “% Inhibition @ 10 uM” value is recorded as -1.6%.

In the case of `COc1ccc(N(CC(=O)NC2CC3CCC2C3)S(=O)(=O)c2ccc(C)cc2)cc1OC` (stereo not drawn), the “% Inhibition @ 10 uM” value is -0.46%.

`Fc1ccc(CN2CCN(c3ncccn3)CC2)cc1`: the “% Inhibition @ 10 uM” value was -1.86%.

For `CC(=O)OCC1OC2OC(C)(C)OC2C2OC(C)(C)OC12` (stereo not drawn), the “% Inhibition @ 10 uM” value was 1%.

For `COCCNC(=O)CCCn1c(SCc2ccccc2C#N)nc2c(sc3ccccc32)c1=O`, the “% Inhibition @ 10 uM” value is recorded as 1.66%.

In the case of `Cc1nc2ncnn2c(C)c1CCC(=O)NC(C)(C)C`, the “% Inhibition @ 10 uM” value was 2.93%.

Turning to `O=C(c1ccccc1)N(Cc1ccco1)Cc1ccco1`, the “% Inhibition @ 10 uM” value is listed as 5.43%.

As for `Cc1ccc(OCc2ccccc2C(=O)Nc2nccs2)cc1`, the “% Inhibition @ 10 uM” value was found to be 2.7%.

`O=C(Cn1cnc2c(nc3n2CCCCC3)c1=O)NCc1ccc(F)cc1`: the “% Inhibition @ 10 uM” value worked out at 2.82%.

Turning to `CCOc1ccc(NCc2cc(Br)ccc2OC)cc1`, the “% Inhibition @ 10 uM” value is -2.88% and 1.19%.

On to `COc1cc(C(=O)n2nc(N)c3c(C)cc(C)nc32)cc(OC)c1OC`, for which the “% Inhibition @ 10 uM” value is given as -3.34%.

On to `COCCNC(=O)CN1CCCN(Cc2ccc(F)cc2Cl)C1=O`, for which the “% Inhibition @ 10 uM” value is recorded as -6.4%.

Consider `CCC(=O)N1CCN(c2ccc(NC(=O)c3ccc(Br)o3)cc2)CC1`, for which the “% Inhibition @ 10 uM” value is on record as -0.872%.

On to `CCOc1ccc(NC(=O)c2cccc(Cl)c2)cc1`, for which the “% Inhibition @ 10 uM” value is listed as -6.33%.

In the case of `CCN1C(=O)c2ccc(C(=O)Nc3cccc(C(=O)O)c3)cc2C1=O`, the “% Inhibition @ 10 uM” value came to 4.22%.

Turning to `COc1cc(/C=C2\NC(=O)N(Cc3ccc(Cl)cc3)C2=O)ccc1OC(C)C`, the “% Inhibition @ 10 uM” value is given as -3.06%.

`O=C(CC12CC3CC(CC(C3)C1)C2)N1CCCC1`: the “% Inhibition @ 10 uM” value was -2.44%.

For the compound `COc1ccc(-c2noc(CSc3nnc(-c4ccncc4)n3-c3cccc(C)c3)n2)cc1`, the “% Inhibition @ 10 uM” value was determined as 2.89%.

Take `CC12CCC(C(/C=N/CC/N=C/C3=C(O)C4(C)CCC3C4(C)C)=C1O)C2(C)C`: the “% Inhibition @ 10 uM” value is 1.33%.

`O=C(C1=C(O)C(=O)N(CC2CCCO2)C1c1cccnc1)c1ccc2c(c1)OCCO2` (stereo not drawn): the “% Inhibition @ 10 uM” value is -9.12%.

Regarding `CS(=O)(=O)N(CC(=O)Nc1ccc2c(c1)OCO2)c1ccc(Cl)c(Cl)c1`, the “% Inhibition @ 10 uM” value is -1.82%.

With `O=C(c1ccc(COc2ccccc2Br)o1)N1N=C(C(F)F)CC1(O)C(F)F` (stereo not drawn), the “% Inhibition @ 10 uM” value worked out at 3.72%.

The values are drawn from publication PMC6919601, “Identification of Plasmodium dipeptidyl aminopeptidase allosteric inhibitors by high throughput screening” (PLoS ONE, 2019).
